# Source: the supplement of paper PMC11880418
# Structures can show the parent of a compound that is named as a salt. Some of the results follow. The data scatter; read single values as rough. Residues, ends and D or L forms follow the SMILES beside them.
# Assays:
# Assay in all cases: ALDHbr (CSC) cell proportion score relative to DMSO vehicle (ratio to DMSO); breast (SUM159) / gastric (MKN45) / pancreatic (PANC1) / colon cancer lines; ALDHbr cells have high ALDH activity and are rich in cancer stem cells (CSC); higher = more CSC (ALDHbr) cells remaining
# Conditions in all cases: 10 µM; 72 h
# [1] = system: MKN45
# [2] = system: PANC1
# [3] = system: SUM159
# [4] = system: T84
# 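Further: High-content imaging of ALDEFLUOR-stained cells with Hoechst-labelled nuclei in 384-well plates, triplicate wells, scored as Z-score against 0.1% DMSO vehicle, negative meaning fewer ALDHbr cells.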
SMILES,ALDHbr [1],ALDHbr [2],ALDHbr [3],ALDHbr [4]
CCN[C@H]1CN(CCCOC)S(=O)(=O)c2sc(S(N)(=O)=O)cc21 [Brinzolamide],1.12,0.875,1.19,0.947
O=C(O)COCCN1CCN(C(c2ccccc2)c2ccc(Cl)cc2)CC1 (centres undefined) [Cetirizine dihydrochloride],1.03,1.01,1.05,0.831
CC(C)Nc1cccnc1N1CCN(C(=O)c2cc3cc(NS(C)(=O)=O)ccc3[nH]2)CC1 [Delavirdine],0.768,0.594,0.48,0.642
CCCCN(CCCC)CCCOC(=O)c1ccc(N)cc1 [Butacaine],1.11,0.75,0.986,1.07
O=C(O)CNC(=O)C(CS)Cc1ccccc1 (centres undefined) [Thiorphan],0.857,1.11,1.18,1.02
CCC(C)(CN(C)C)OC(=O)c1ccccc1 (centres undefined) [Amyleine hydrochloride],0.92,0.949,1.43,0.941
CC(=O)OCC(=O)[C@@]1(O)CC[C@H]2[C@@H]3CCC4=CC(=O)CC[C@]4(C)[C@@]3(F)[C@@H](O)C[C@@]21C [Fludrocortisone acetate],1.1,0.443,1.4,0.96
"CC(C)CCCCC(=O)N[C@@H](CCN)C(=O)N[C@@H](CN[C@@H](CCN)C(=O)N[C@H]1CCNC(=O)[C@H]([C@@H](C)O)NC(=O)[C@H](CCN)NC(=O)[C@H](CCN)NC(=O)[C@H](CC(C)C)NC(=O)[C@@H](CC(C)C)NC(=O)[C@H](CCN)NC1=O)[C@@H](C)O.CCC(C)CCCCC(=O)N[C@@H](CCN)C(=O)N[C@@H](CN[C@@H](CCN)C(=O)N[C@H]1CCNC(=O)[C@H]([C@@H](C)O)NC(=O)[C@H](CCN)NC(=O)[C@H](CCN)NC(=O)[C@H](CC(C)C)NC(=O)[C@@H](CC(C)C)NC(=O)[C@H](CCN)NC1=O)[C@@H](C)O (stereo partly drawn) [Colistin sulfate] (HELM PEPTIDE1{[C[C@@H](O)[C@H](CN[C@@H](CCN)C(=O)[*:2])N[*:3]].[Dab].[Dab].[dL].L.[Dab].[Dab].T}|PEPTIDE2{[CCC(C)CCCCC(=O)[*:2]].[Dab]}$PEPTIDE1,PEPTIDE2,1:R3-2:R2|PEPTIDE1,PEPTIDE1,2:R3-8:R2$$$V2.0)",0.849,0.939,1.02,0.852
CNC[C@H](O)[C@@H](O)[C@H](O)[C@H](O)CO [Meglumine],0.997,1.11,1.16,1.14
COc1cnc(NS(=O)(=O)c2ccc(N)cc2)nc1 [Sulfameter],0.903,1.04,1.02,1.05
NC(=O)N1c2ccccc2C=Cc2ccccc21 [Carbamazepine],0.934,0.932,0.927,0.901
CC(=O)OCC(=O)[C@@]1(OC(C)=O)[C@@H](C)C[C@H]2[C@@H]3C[C@H](F)C4=CC(=O)C=C[C@]4(C)[C@@]3(F)[C@@H](O)C[C@@]21C [Diflorasone Diacetate],1.24,0.657,0.731,0.814
CN1CCCN=C1/C=C/c1cccs1 [Pyrantel tartrate],0.888,0.856,1.04,0.838
COc1ccccc1N1CCN(CC(O)COc2cccc3ccccc23)CC1 (centres undefined) [Naftopidil dihydrochloride],1.36,0.928,0.835,0.8
CN1CCN(c2c(F)cc3c(=O)c(C(=O)O)cn4c3c2SCC4)CC1 [Rufloxacin],1.21,0.912,1.22,1.09
NC(=O)c1cnccn1 [Pyrazinamide],1.01,1.04,1.07,1.01
CCCCNc1cc(C(=O)O)cc(S(N)(=O)=O)c1Oc1ccccc1 [Bumetanide],1.02,0.765,1.03,0.971
Cc1ccccc1N1C(=O)c2cc(S(N)(=O)=O)c(Cl)cc2NC1C (centres undefined) [Metolazone],0.841,0.782,0.902,0.844
CCc1nc(N)nc(N)c1-c1ccc(Cl)cc1 [Pyrimethamine],0.23,1.12,1.62,0.472
Nc1ccc(S(=O)(=O)Nc2ccccn2)cc1 [Sulfapyridine],0.957,1.05,1.07,1.03
C[C@]12CC[C@@H]3c4ccc(OS(=O)(=O)O)cc4CC[C@H]3[C@@H]1CCC2=O [Estropipate],0.936,0.938,1.17,0.982
"CC(C)NCC(O)c1ccc(O)c(O)c1 (single isomer, unassigned; (+)) [(+)-Isoproterenol (+)-bitartrate salt]",1.06,0.795,2.22,0.857
CN1C(C(=O)Nc2ccccn2)=C(O)c2sccc2S1(=O)=O [Tenoxicam],1.06,0.945,1.13,0.91
COc1ccc(C(=O)c2ccccc2)c(O)c1 [Oxybenzone],1.21,0.758,0.972,1.32
Nc1nc2ccc(OC(F)(F)F)cc2s1 [Riluzole hydrochloride],1.22,0.799,1.21,0.811
CNCCC=C1c2ccccc2C=Cc2ccccc21 [Norcyclobenzaprine],1.08,0.953,0.556,0.627

SMILES,ALDHbr [1],ALDHbr [2],ALDHbr [3],ALDHbr [4]
Cc1onc(-c2c(Cl)cccc2Cl)c1C(=O)N[C@@H]1C(=O)N2[C@@H]1SC(C)(C)[C@@H]2C(=O)O [Dicloxacillin sodium salt hydrate],1.03,0.96,0.901,0.951
CCOC(=O)[C@H](CCc1ccccc1)N[C@H]1CCc2ccccc2N(CC(=O)O)C1=O [Benazepril hydrochloride],1.02,0.931,0.855,0.843
O=c1n(CCCN2CCN(c3cccc(Cl)c3)CC2)nc2ccccn12 [Trazodone hydrochloride],0.865,0.514,0.962,0.858
NCCCCCC(=O)O [Aminocaproic acid],0.947,0.776,0.876,0.977
COc1ccc(C(=O)c2ccccc2O)c(O)c1 [Dioxybenzone],0.959,0.912,1.12,0.966
C[C@]12CCC(=O)C=C1CC[C@@H]1[C@@H]2C(=O)C[C@@]2(C)[C@H]1CC[C@]2(O)C(=O)CO [Cortisone],0.878,0.857,0.976,0.948
C[C@H]1O[C@H](O[C@H]2[C@H](O)[C@@H](O)[C@@H](O[C@@H]([C@H](O)[C@@H](O)C=O)[C@H](O)CO)O[C@@H]2CO)[C@H](O)[C@@H](O)[C@@H]1N[C@H]1C=C(CO)[C@@H](O)[C@H](O)[C@H]1O [Acarbose],1.13,0.877,1.11,0.959
CC(C)c1c(C(=O)Nc2ccccc2)c(-c2ccccc2)c(-c2ccc(F)cc2)n1CC[C@@H](O)C[C@@H](O)CC(=O)O [Atorvastatin],0.713,1.04,0.476,0.884
Nc1ccc(S(=O)(=O)Nc2cnc3ccccc3n2)cc1 [Sulfaquinoxaline sodium salt],1.02,0.877,0.812,0.978
CO/N=C(\C(=O)N[C@@H]1C(=O)N2C(C(=O)O)=C(COC(N)=O)CS[C@H]12)c1ccco1 [Cefuroxime sodium salt],1.02,0.947,0.69,1.06
"C[C@H]1C[C@@H]2[C@H]([C@@H](O)C[C@@]3(C)[C@H]2CC[C@]3(O)C(=O)CO)[C@@]2(C)C=CC(=O)C=C12 [Methylprednisolone, 6-alpha]",0.871,0.507,1.12,0.868
COCC1=C(C(=O)OC(C)OC(=O)OC(C)C)N2C(=O)[C@@H](NC(=O)/C(=N\OC)c3csc(N)n3)[C@H]2SC1 (some centres undefined) [Cefpodoxime proxetil],0.945,1.01,0.911,0.892
Cn1c(=O)c2[nH]cnc2n(C)c1=O [Aminophylline],0.864,0.936,1.22,0.828
Cc1noc(NS(=O)(=O)c2ccc(N)cc2)c1C [Sulfisoxazole],0.986,0.908,1.01,1
Cc1cc(-n2c(=O)[nH]c(=O)n(C)c2=O)ccc1Oc1ccc(SC(F)(F)F)cc1 [Toltrazuril],1.03,0.921,1.09,1.09
"C[C@](N)(Cc1ccc(O)c(O)c1)C(=O)O [Methyldopa (L,-)]",1.09,0.857,1.04,0.882
C[C@H](CCC(=O)O)[C@H]1CC[C@H]2[C@@H]3[C@H](O)C[C@@H]4C[C@H](O)CC[C@]4(C)[C@H]3CC[C@]12C [Chenodiol],1.08,0.826,1.03,1.19
CCOC(=O)C1=C(C)NC(C)=C(C(=O)OC)C1c1cccc([N+](=O)[O-])c1 (centres undefined) [Nitrendipine],0.951,0.783,0.922,1.05
Cc1nc(=O)c2cc(CN(C)c3ccc(C(=O)N[C@@H](CCC(=O)O)C(=O)O)s3)ccc2[nH]1 [Raltitrexed],0.239,1.36,0.855,0.365
CC(N)CCCC(C)(C)O (centres undefined) [Heptaminol hydrochloride],0.935,0.889,0.962,0.976
CC(C(=O)O)c1ccc(C(=O)c2cccs2)cc1 (centres undefined) [Suprofen],0.984,0.914,0.916,0.902
CN(C)CCC(c1ccc(Br)cc1)c1ccccn1 (centres undefined) [Brompheniramine maleate],1.21,0.916,1.03,0.904
C#Cc1cccc(Nc2ncnc3cc(OCCOC)c(OCCOC)cc23)c1 [Erlotinib],1.09,0.689,0.227,0.72
CC(C)[N+](C)(CCOC(=O)C1c2ccccc2Oc2ccccc21)C(C)C [Propantheline bromide],0.987,1,1.12,1.02
CC1(C)O[C@@H]2C[C@H]3[C@@H]4C[C@H](F)C5=CC(=O)C=C[C@]5(C)[C@H]4[C@@H](O)C[C@]3(C)[C@]2(C(=O)CO)O1 [Flunisolide],0.852,0.698,1.39,0.935
